From PMC9911399, “Two distinct binding modes provide the RNA-binding protein RbFox with extraordinary sequence specificity” come the findings set out here.

Positions count from the first letter of the chain named. The list shows a part of the results.

Sequences and labels used below:
T1: RBFOX1 RRM (Homo sapiens, UniProt Q9NWB1 109-208)
T1 sequence: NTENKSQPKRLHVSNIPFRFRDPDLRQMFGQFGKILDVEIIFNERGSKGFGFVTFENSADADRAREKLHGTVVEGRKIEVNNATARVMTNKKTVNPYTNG

B1: GGAUGUA (DNA:RNA)
RNA: GGGAGACCGGAAUUCAGAUUGUCCGGAUGUAUUAAAUCCCGUCGUAGCCACCA
DNA 1: CAATCTGAATTCCGGTCTCCC
DNA 2: TGGTGGCTACGACGGGATT
B2: CACCGUU (DNA:RNA)
RNA: B1 RNA with G25C, G26A, A27C, U28C, A31U
DNA 1: CAATCTGAATTCCGGTCTCCC
DNA 2: TGGTGGCTACGACGGGATT
B3: UGGUAAA (DNA:RNA)
RNA: B1 RNA with G25U, A27G, G29A, U30A
DNA 1: CAATCTGAATTCCGGTCTCCC
DNA 2: TGGTGGCTACGACGGGATT
B4: AGAAAGC (DNA:RNA)
RNA: B1 RNA with G25A, U28A, G29A, U30G, A31C
DNA 1: CAATCTGAATTCCGGTCTCCC
DNA 2: TGGTGGCTACGACGGGATT
B5: AUAAUGU (DNA:RNA)
RNA: B1 RNA with G25A, G26U, U28A, G29U, U30G, A31U
DNA 1: CAATCTGAATTCCGGTCTCCC
DNA 2: TGGTGGCTACGACGGGATT
B6: UGUAACC (DNA:RNA)
RNA: B1 RNA with G25U, A27U, U28A, G29A, U30C, A31C
DNA 1: CAATCTGAATTCCGGTCTCCC
DNA 2: TGGTGGCTACGACGGGATT
B7: ACUACCC (DNA:RNA)
RNA: GGGAGACCGGAAUUCAGAUUGUCCACUACCCUUAAAUCCCGUCGUAGCCACCA
DNA 1: CAATCTGAATTCCGGTCTCCC
DNA 2: TGGTGGCTACGACGGGATT
B8: UGUUACG (DNA:RNA)
RNA: B7 RNA with A25U, C26G, A28U, C29A, C31G
DNA 1: CAATCTGAATTCCGGTCTCCC
DNA 2: TGGTGGCTACGACGGGATT
B9: AACCUCG (DNA:RNA)
RNA: B7 RNA with C26A, U27C, A28C, C29U, C31G
DNA 1: CAATCTGAATTCCGGTCTCCC
DNA 2: TGGTGGCTACGACGGGATT
B10: CAUGGCA (DNA:RNA)
RNA: B7 RNA with A25C, C26A, A28G, C29G, C31A
DNA 1: CAATCTGAATTCCGGTCTCCC
DNA 2: TGGTGGCTACGACGGGATT
B11: ACGCUUC (DNA:RNA)
RNA: B7 RNA with U27G, A28C, C29U, C30U
DNA 1: CAATCTGAATTCCGGTCTCCC
DNA 2: TGGTGGCTACGACGGGATT
B12: CGAUGUC (DNA:RNA)
RNA: B1 RNA with G25C, A31C
DNA 1: CAATCTGAATTCCGGTCTCCC
DNA 2: TGGTGGCTACGACGGGATT
B13: AUUGCGU (DNA:RNA)
RNA: B7 RNA with C26U, A28G, C30G, C31U
DNA 1: CAATCTGAATTCCGGTCTCCC
DNA 2: TGGTGGCTACGACGGGATT
B14: CUCCUCA (DNA:RNA)
RNA: B7 RNA with A25C, C26U, U27C, A28C, C29U, C31A
DNA 1: CAATCTGAATTCCGGTCTCCC
DNA 2: TGGTGGCTACGACGGGATT
B15: UGGGUAC (DNA:RNA)
RNA: B7 RNA with A25U, C26G, U27G, A28G, C29U, C30A
DNA 1: CAATCTGAATTCCGGTCTCCC
DNA 2: TGGTGGCTACGACGGGATT
B16: ACUACUA (DNA:RNA)
RNA: B7 RNA with C30U, C31A
DNA 1: CAATCTGAATTCCGGTCTCCC
DNA 2: TGGTGGCTACGACGGGATT
B17: CAAAAGA (DNA:RNA)
RNA: B1 RNA with G25C, G26A, U28A, G29A, U30G
DNA 1: CAATCTGAATTCCGGTCTCCC
DNA 2: TGGTGGCTACGACGGGATT
B18: CUUCUUC (DNA:RNA)
RNA: B7 RNA with A25C, C26U, A28C, C29U, C30U
DNA 1: CAATCTGAATTCCGGTCTCCC
DNA 2: TGGTGGCTACGACGGGATT
B19: GUGCCGC (DNA:RNA)
RNA: B7 RNA with A25G, C26U, U27G, A28C, C30G
DNA 1: CAATCTGAATTCCGGTCTCCC
DNA 2: TGGTGGCTACGACGGGATT
B20: CUGCAGA (DNA:RNA)
RNA: B1 RNA with G25C, G26U, A27G, U28C, G29A, U30G
DNA 1: CAATCTGAATTCCGGTCTCCC
DNA 2: TGGTGGCTACGACGGGATT
B21: CGCGGAG (DNA:RNA)
RNA: B1 RNA with G25C, A27C, U28G, U30A, A31G
DNA 1: CAATCTGAATTCCGGTCTCCC
DNA 2: TGGTGGCTACGACGGGATT
B22: GUCGCAC (DNA:RNA)
RNA: B7 RNA with A25G, C26U, U27C, A28G, C30A
DNA 1: CAATCTGAATTCCGGTCTCCC
DNA 2: TGGTGGCTACGACGGGATT
B23: GCCAUUG (DNA:RNA)
RNA: B7 RNA with A25G, U27C, C29U, C30U, C31G
DNA 1: CAATCTGAATTCCGGTCTCCC
DNA 2: TGGTGGCTACGACGGGATT
B24: AACCCUU (DNA:RNA)
RNA: B7 RNA with C26A, U27C, A28C, C30U, C31U
DNA 1: CAATCTGAATTCCGGTCTCCC
DNA 2: TGGTGGCTACGACGGGATT
B25: GAUGCUC (DNA:RNA)
RNA: B7 RNA with A25G, C26A, A28G, C30U
DNA 1: CAATCTGAATTCCGGTCTCCC
DNA 2: TGGTGGCTACGACGGGATT
B26: CAAAGUA (DNA:RNA)
RNA: B1 RNA with G25C, G26A, U28A
DNA 1: CAATCTGAATTCCGGTCTCCC
DNA 2: TGGTGGCTACGACGGGATT
B27: GUGGCCG (DNA:RNA)
RNA: B7 RNA with A25G, C26U, U27G, A28G, C31G
DNA 1: CAATCTGAATTCCGGTCTCCC
DNA 2: TGGTGGCTACGACGGGATT
B28: GUGCUUG (DNA:RNA)
RNA: B1 RNA with G26U, A27G, U28C, G29U, A31G
DNA 1: CAATCTGAATTCCGGTCTCCC
DNA 2: TGGTGGCTACGACGGGATT
B29: CGAAUAA (DNA:RNA)
RNA: B1 RNA with G25C, U28A, G29U, U30A
DNA 1: CAATCTGAATTCCGGTCTCCC
DNA 2: TGGTGGCTACGACGGGATT
B30: GGAGCAG (DNA:RNA)
RNA: B1 RNA with U28G, G29C, U30A, A31G
DNA 1: CAATCTGAATTCCGGTCTCCC
DNA 2: TGGTGGCTACGACGGGATT
B31: GUAGGUG (DNA:RNA)
RNA: B1 RNA with G26U, U28G, A31G
DNA 1: CAATCTGAATTCCGGTCTCCC
DNA 2: TGGTGGCTACGACGGGATT

For this assay, the target named is T1, RBFOX1 RRM. Kind of assay: EMSA; HiTS-Eq, 1 nM pool, 10 min; buffer printed only for the single-RNA assays: 10 mM Tris pH 7.5, 150 mM NaCl, 3.4 mM EDTA, 0.001% NP-40, 30 C. As to conditions: tags: His6 N-terminal (pET28a); label: 5' 32P. Summed up:
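Purified RbFox RRM (wild type or mutant) was equilibrated for 10 min in 50 µL with 1 nM of a 5′-radiolabelled pool of RNA with 7 randomized nucleotides, its flanks annealed to DNA oligonucleotides, across increasing protein concentrations. Free RNA was separated by 8% native PAGE, excised, reverse-transcribed, PCR-barcoded and sequenced on an Illumina HiSeq 2500. Relative association constants came from read-count changes of each variant against the control reaction, normalised to the cognate motif.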
In general terms: Mobility shift assays separate free from complexed probe on a gel.
As for B1, the binding signal was 0.015 KA relative to UGCAUGU. The same measure for B2: 0.0019 KA relative to UGCAUGU; for B3: 0.00876 KA relative to UGCAUGU. For B4 the value was 0.00546 KA relative to UGCAUGU; for B5, 0.00669 KA relative to UGCAUGU; for B6, 0.00753 KA relative to UGCAUGU. With B7, the binding signal is 0.00249 KA relative to UGCAUGU. For B8 the value was 0.0175 KA relative to UGCAUGU; for B9, 0.00169 KA relative to UGCAUGU.

On to B10, for which the binding signal was 0.0103 KA relative to UGCAUGU.

As for B11, the binding signal is 0.00748 KA relative to UGCAUGU.

B12: the binding signal is 0.0174 KA relative to UGCAUGU.

For B13, the binding signal was 0.0121 KA relative to UGCAUGU. B14: the binding signal is 0.0035 KA relative to UGCAUGU. In the case of B15, the binding signal is 0.0257 KA relative to UGCAUGU.

B16: the binding signal was 0.00246 KA relative to UGCAUGU. For B17 the value was 0.00211 KA relative to UGCAUGU; for B18, 0.00922 KA relative to UGCAUGU.

With B19, the binding signal was 0.0163 KA relative to UGCAUGU. For B20 the value was 0.0168 KA relative to UGCAUGU; for B21, 0.017 KA relative to UGCAUGU. Regarding B22, the binding signal is 0.0117 KA relative to UGCAUGU. The same measure for B23: 0.0121 KA relative to UGCAUGU; for B24: 0.000621 KA relative to UGCAUGU. The same measure for B25: 0.0194 KA relative to UGCAUGU. For B26 the value was 0.00198 KA relative to UGCAUGU; for B27, 0.0209 KA relative to UGCAUGU. In the case of B28, the binding signal is 0.053 KA relative to UGCAUGU. With B29, the binding signal is 0.00311 KA relative to UGCAUGU. Regarding B30, the binding signal is 0.0164 KA relative to UGCAUGU. In the case of B31, the binding signal is 0.0139 KA relative to UGCAUGU.
